In publication PMC4336329 (PLoS ONE, 2015):
About 2,200 (0.71%) of roughly 310,000 compounds showed an effect of 50% or more. Effects have a minus sign here. The list shows a part of the results.

Biological target: human ether-à-go-go-related gene (hERG) potassium channel (human, UniProt Q12809)
Assay: primary screen, population patch clamp on CHO cells stably expressing hERG

Sequence of human ether-à-go-go-related gene (hERG) potassium channel (Q12809 whole entry, looked up): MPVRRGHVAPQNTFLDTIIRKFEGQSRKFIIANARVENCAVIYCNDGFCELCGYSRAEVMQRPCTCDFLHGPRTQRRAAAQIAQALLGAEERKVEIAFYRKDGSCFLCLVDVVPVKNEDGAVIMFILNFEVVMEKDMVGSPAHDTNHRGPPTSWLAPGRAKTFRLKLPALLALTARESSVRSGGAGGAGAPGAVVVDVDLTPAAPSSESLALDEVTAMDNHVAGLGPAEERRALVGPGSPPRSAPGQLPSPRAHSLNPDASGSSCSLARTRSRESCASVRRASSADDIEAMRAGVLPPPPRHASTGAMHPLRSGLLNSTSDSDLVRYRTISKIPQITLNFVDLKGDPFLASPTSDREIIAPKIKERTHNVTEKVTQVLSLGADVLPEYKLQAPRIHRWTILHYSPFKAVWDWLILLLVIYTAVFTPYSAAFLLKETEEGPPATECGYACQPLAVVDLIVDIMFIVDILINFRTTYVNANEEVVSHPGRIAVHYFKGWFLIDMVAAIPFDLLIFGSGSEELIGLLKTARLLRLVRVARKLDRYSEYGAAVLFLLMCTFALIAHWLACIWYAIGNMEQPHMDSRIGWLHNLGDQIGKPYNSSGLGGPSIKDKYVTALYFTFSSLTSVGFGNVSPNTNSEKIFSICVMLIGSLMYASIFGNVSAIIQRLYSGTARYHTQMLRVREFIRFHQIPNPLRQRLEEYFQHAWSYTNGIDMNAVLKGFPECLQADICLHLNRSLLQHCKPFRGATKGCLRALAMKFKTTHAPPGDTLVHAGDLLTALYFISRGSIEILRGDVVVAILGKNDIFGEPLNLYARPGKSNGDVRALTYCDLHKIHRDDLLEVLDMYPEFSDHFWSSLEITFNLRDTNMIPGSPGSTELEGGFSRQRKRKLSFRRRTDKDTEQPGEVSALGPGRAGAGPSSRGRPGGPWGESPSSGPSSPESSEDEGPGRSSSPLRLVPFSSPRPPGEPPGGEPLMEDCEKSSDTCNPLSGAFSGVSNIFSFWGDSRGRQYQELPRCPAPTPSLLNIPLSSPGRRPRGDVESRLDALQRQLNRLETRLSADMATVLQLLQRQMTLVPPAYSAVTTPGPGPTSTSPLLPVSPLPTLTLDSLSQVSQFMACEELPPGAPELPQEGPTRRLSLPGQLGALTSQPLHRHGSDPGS

SMILES | hERG current change (%, negative = inhibition) at 1uM [%]
Cn1c(N/N=C/c2c[nH]c3ccccc23)nc2ccccc21 | -5.14
Cc1nc2ccccc2c(=O)n1NC(=O)c1ccc(C(C)(C)C)cc1 | 18
C#CCOCCOCCOCCNc1nc(N2CCN(C(=O)[C@H](CCCCN)n3cc([C@@H](N)C(C)CC)nn3)CC2)nc(N2CCN(C(=O)[C@H](CCCCN)n3cc([C@@H](N)CO)nn3)CC2)n1.Cl (stereo partly drawn) | 12
O=C(Nc1nc(-c2cccs2)cs1)C1=COCCO1 | 1
O=C(OCC(=O)N1CCN(c2ccccc2)CC1)c1nc(Cl)ccc1Cl | 2.65
COc1ccc(Nc2nc(N)nc(CSC(=S)N3CCCCC3C)n2)cc1 (stereo not drawn) | 9.64
Cc1cc(C)n(-c2c(F)c(F)c(COC(=O)c3ccccc3)c(F)c2F)n1 | 10.2
Cc1nonc1CN(C)C(=O)CC1C(=O)NCCN1Cc1ccc(F)c(F)c1 (stereo not drawn) | 8.67
Cc1ccc(SCc2cc(=O)n(C)[nH]2)cc1 | 18.2
O=C(CSc1ccc(Br)cc1)NCC(c1ccco1)N1CCCCC1 (stereo not drawn) | 9.34
O=C(O)C(c1ccccc1)C1(O)CCCCC1 (stereo not drawn) | 18.1
CC(=O)c1c(C)[nH]c(C(=O)Nc2cccc(S(=O)(=O)N3CCOCC3)c2)c1C | 7.8
Cc1cc(C(F)(F)F)c(C#N)c(SCC(=O)Nc2nc3cc(Br)ccc3s2)n1 | -39.9
COc1ccc(-c2cc(C(F)(F)F)n3ncc(C(=O)N4CCc5ccccc5C4)c3n2)cc1 | 11.6
Cc1ccc(-c2nnc(N3CCOCC3)c3ccccc23)cc1S(=O)(=O)NCC1CCCO1 (stereo not drawn) | 0.72
Cc1oc(C)c(C(=O)O)c1COc1ccc(C(=O)O)cc1 | 9.47
CCOC(=O)c1c(NC(=O)CSc2nnc(C)o2)sc(C)c1C | 4.1
COc1cc(C)ccc1OCCOCCOc1ccc([N+](=O)[O-])cc1 | -9
CCNc1nc(-c2ccc(OC(F)F)cc2)c(C)s1 | 16.7
COc1ccc(C(=O)CSc2nnc(CNc3ccc(F)cc3)o2)cc1 | 13
Cc1cc(NC(=O)CSc2nnnn2-c2ccc(C(C)C)cc2)no1 | 7.23
O=C(O)C1CN2CCC1CC2 (stereo not drawn) | -4.48
C/C(=N\Nc1nc(N)cc(Cl)n1)c1ccc(Cl)c(Cl)c1 | 0.15

SMILES | hERG current change (%, negative = inhibition) at 1uM [%]
COc1ccc(N(CC(=O)N2CCN(c3ccccc3)CC2)S(=O)(=O)c2c(C)noc2C)cc1 | -0.248
COc1ccc(S(=O)(=O)N2CCC(C(=O)NCCc3c[nH]c4ccccc34)CC2)cc1 | 9.47
CC(C)COC(=O)CNc1n[nH]c(=S)[nH]c1=O | 8.28
COc1ccc(N/N=C2/CCCCC2=O)cc1 | 14.6
O=C(O)CC(c1cccc(O)c1)N1Cc2ccccc2C1=O (stereo not drawn) | 12
O=C(NC1CCN(Cc2ccccc2)CC1)C1CCCN(c2nnc(-n3cccc3)s2)C1 (stereo not drawn) | -65.2
O=C(Nc1cccc(C(=O)N2CCCCCC2)c1)c1ccco1 | 2.11
COc1ccc(NC(=O)CN2C(=O)NC3(CCCC3)C2=O)cc1Cl | 16.3
CC(C)(C)NC(=O)C(OC(=O)Cn1nnc(-c2ccc(F)cc2)n1)c1ccncc1 (stereo not drawn) | 25.2
Cc1ccc2occ(/C=C/C(=O)O)c(=O)c2c1 | 9.03
Cc1ccc(SCc2ccc(C(=O)NCc3cccnc3)cc2)cc1 | 15.1
Cc1ccc(-c2cc(C(=O)Nc3ccc(S(=O)(=O)Nc4ncccn4)cc3)c3ccccc3n2)cc1 | -1.57
CCC(Oc1ccccc1OC)C(=O)Nc1ccc2c(c1)OCCO2 (stereo not drawn) | 3.64
CCn1c(-c2ccc(-c3ccccc3)cc2)c[nH]c1=S | 7.11
CCn1c(/C=N/Nc2ccc(C(=O)O)cc2)nc2ccccc21 | 9.47
Cc1ccc(-n2[nH]c(C)c(/C=N/NC(=O)c3ccc(O)cc3O)c2=O)cc1 | 21.4
CCOC(=O)C1=C(C)Nc2nc(SCC(=O)OC)nn2C1c1cc(F)cc(F)c1 (stereo not drawn) | -4.97
CC(=O)c1cccc(NC(=O)c2ccc3c(c2)OCO3)c1 | 14.9
O=C(COC(=O)c1n[nH]c2ccccc12)Nc1ccc([N+](=O)[O-])cc1 | 11.5
CCc1ccccc1NC(=O)COC(=O)c1cccs1 | 13.3
Cc1cccc(OCC(=O)N2CCN(C(=O)c3cccs3)CC2)c1 | 5.43
O=C(O)c1ccccc1-c1ccc(C=C2C(=O)N(c3ccccc3)C(=S)N(c3ccccc3)C2=O)o1 | 11.6
